Test results as given in patent US12493045B2, “Multi-target crosslinkers and uses thereof” (The Regents of the University of California, priority 2018, dated 2025).

Assays:
[1] = target: 14-3-3 protein expressed in E. coli cells (Homo sapiens, UniProt P63104); details: crosslinker applied to intact cells, UV 365 nm 15 min
[2] = target: endogenous EGFR in MCF7 cells (Homo sapiens, UniProt P00533); assay: Crosslinking of endogenous EGFR on mammalian cell surface (Western blot); assay type: cell-based; details: with or without NHQM and UV

UniProt P63104, sequence (P63104 whole entry): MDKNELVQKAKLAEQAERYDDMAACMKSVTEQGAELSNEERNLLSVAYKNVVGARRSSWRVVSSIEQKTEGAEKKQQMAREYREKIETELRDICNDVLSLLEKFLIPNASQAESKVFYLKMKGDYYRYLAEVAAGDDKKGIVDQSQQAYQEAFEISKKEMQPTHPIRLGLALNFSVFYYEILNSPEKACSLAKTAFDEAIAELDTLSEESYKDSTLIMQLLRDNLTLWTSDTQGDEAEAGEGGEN

Structure (SMILES): O=C(ON1C(=O)CCC1=O)c1ccc(OCc2ccccc2[N+](=O)[O-])c(C(F)F)c1 [NHQM]
- Dimeric crosslinking of 14-3-3 inside E. coli cells [1]: did not detect any 14-3-3 dimeric form
- Endogenous EGFR dimerization [2]: detected only in the presence of UV and NHQM
